According to ChEMBL document CHEMBL4888484, “Replenishing the malaria drug discovery pipeline: Screening and hit evaluation of the MMV Hit Generation Library 1 (HGL1) against asexual blood stage Plasmodium falciparum ,using a nano luciferase reporter read-out” (2022):
The whole screen tested about 150,000 compounds, of which about 540 (0.36%) showed an effect of 50% or more. The list shows a part of the results.

These molecules were tested on Plasmodium falciparum (assay: Primary screen in NF54 nanoGlo assay, in single point, at 2uM, 72h; a lower Z score goes with more inhibition). Details: timepoint 72 hour.
Format: functional, Erythrocyte

Row | SMILES | % Inhibition | Z score
1 | COCCN(C)C(=O)Nc1ccc(Cl)c(OC(F)F)c1 | 0% | -0.01
2 | Cc1c(S(=O)(=O)N2C[C@H](C(=O)O)[C@@H](C)C2)oc2ccc(F)cc12 | 0% | 0.01
3 | C[C@@H](NC(=O)NC1(CN(C)C)CCC1)C(=O)N1Cc2ccccc2C1 | -5% | 0.45
4 | Cc1ccc(NC(=O)N2CCC(c3nc4cc(Cl)ccc4o3)CC2)c(Br)c1 | -1% | 0.18
5 | COc1ccccc1Cc1n[nH]c(CCCn2cccn2)n1 | -3% | 0.42
6 | CCCN(C)C(=O)[C@H](C1CCCC1)N1CCN(C(=O)c2ccc(OC)cc2)CC1 | -18% | 2.64
7 | Cn1c(=O)c2c(ncn2Cc2ncc(-c3cccs3)o2)n(C)c1=O | -12% | 1.66
8 | COc1ccc(Cl)cc1NC(=O)N1CC(Oc2cccc(C(F)(F)F)n2)C1 | 0% | 0.02
9 | Cc1ncc(S(C)(=O)=O)c(N2C[C@H]3CC=CC[C@H]3C2)n1 | 2% | -0.19
10 | Cc1ccc(-c2cccnc2)cc1NC(=O)NCC(F)(F)C(F)F | -5% | 0.73
11 | Cc1nn(-c2ccccc2)c(C)c1CN1CC2OCCN(C)C2C1 (stereo unspecified) | -4% | 0.47
12 | CCN1c2cc(C)ccc2-n2cccc2C12CCN(C(=O)Nc1ccccc1C(F)(F)F)CC2 | -14% | 1.98
13 | CC(C)CCn1ccc(NC2CCOC2C)n1 (stereo unspecified) | -11% | 1.63
14 | Cc1cc(C(=O)N[C@@H](Cc2ccccc2)C(N)=O)nc(C)n1 | -2% | 0.38
15 | CCOC(=O)C(NC(=O)[C@@H]1Cc2cccc(F)c2O1)C(=O)OCC | 29% | -3.3
16 | O=C(CN1CCC[C@H](O)C1)N(C1CCCCC1)C1CCCCC1 | 28% | -0.83
17 | CCOC(=O)CN(C1CCCC1)S(=O)(=O)N(C)C | 1% | -0.1
18 | O=S(=O)(c1ccc(F)cc1F)N1CC(OCc2ccccc2F)C1 | -9% | 1.72
19 | CCOC(C)C(=O)N1C2C=C(c3ccccc3)CC1CC2 (stereo unspecified) | 8% | -0.79
20 | CCC(=O)NC1=NN2C(=NC(c3ccc(Cl)cc3)=C[C@H]2c2ccc(F)cc2)N1 | 5% | -0.64
21 | CCCCNCCOCCOc1c(C)cccc1Cl | 7% | -1.35
22 | COCCC1(S(=O)(=O)NCCc2ccc(C)c(OC)c2)CC1 | 14% | -1.8
23 | C[C@]1(c2nc(C3CC3)no2)CCCN(C(=O)c2n[nH]c3ccccc23)C1 | -6% | 0.75
24 | CC(C)(C)OC(=O)NC(C(=O)O)C1CCCC(C(F)(F)F)C1 (stereo unspecified) | -16% | 1.64
25 | Cc1cc(Oc2ccc(C#N)cc2)ccc1NC(=O)N1CCO[C@H](C(=O)O)C1 | -13% | 1.19
26 | CCOC(=O)C1CCN(C(=O)[C@@H](NC(=O)c2cc(-c3ccccc3Cl)on2)C(C)C)CC1 | -11% | 1.66
27 | Cc1ccc(-n2c(=O)c3c(cnn3C)n(CC(=O)Nc3ccccc3C)c2=O)cc1 | 1% | -0.09

Row | SMILES | % Inhibition | Z score
28 | C[C@H]1CCCN(CCCNC(=O)CCC(=O)N2CCN(c3nc4cccnc4s3)CC2)C1 | -17% | 1.76
29 | Cc1ccc2c(Nc3ccc4c(c3)OCO4)c(C(=O)N3CCC(C)CC3)cnc2n1 | -5% | 0.86
30 | Cc1cc(=O)n(CC2CC2)c2cc(OCC(=O)Nc3ccccc3F)ccc12 | -5% | 0.71
31 | COC[C@H]1CCN(C(=O)Nc2ccnn2CC2CC2)C1 | -5% | 1.02
32 | CCn1c(=O)c2sccc2n(CC(=O)NCc2ccc(OC)cc2)c1=O | 4% | -0.65
33 | CC1CN(C(C(C)N)C(F)(F)F)CC(C)O1 (stereo unspecified) | 1% | -0.08
34 | CCO[C@H](c1nc(-c2nccc3ccccc23)no1)C(C)C | 0% | 0.01
35 | O=C(c1ccccn1)[C@H]1CCCN(C(=O)NCCN2CCCOC2=O)C1 | -1% | 0.12
36 | CCCN(C(=O)C(=O)Nc1nncs1)C1CCCC1 | -4% | 0.65
37 | Cc1ncc(C(=O)N2CCC[C@]3(CCC(=O)N(C4CCCC4)C3)C2)c(=O)[nH]1 | -14% | 1.27
38 | CCCNC(=O)CN1CCC[C@H]1c1ccon1 | -3% | 0.36
39 | CC1NC2(C(=O)N(Cc3ccc(Cl)c(Cl)c3)c3ccccc32)C2C(=O)N(c3ccccc3)C(=O)C12 (stereo unspecified) | -4% | 0.66
40 | CC1CCN(C[C@]2(O)CCCN(CCCc3ccccc3)C2=O)CC1 | -8% | 1.14
41 | O=C1NC[C@H]2O[C@H](CCOc3cc(-c4ccccc4)ccc3C(=O)N3CCN(CC4CC4)C[C@@H]13)CC[C@@H]2O | -3% | 0.49
42 | Cc1ccc(S(=O)(=O)N2[C@@H]3CC[C@H]2CC(NC(=O)c2ccc(F)cc2)C3)c(C)c1 (stereo partly specified) | -3% | 0.54
43 | CCCn1nc(C2CCOCC2)nc1[C@H]1CCC(=O)N(C)C1 | -16% | 3.16
44 | Cc1ccc(-c2nc(CN(C)Cc3ccc(-n4cccn4)cc3)c(C)o2)o1 | -18% | 2.35
45 | CCCNC(=O)N1CCCCCCN(C)C(=O)CC1 | -19% | 2.55
46 | C[C@@H](CCc1ccccc1)NC(=O)Cc1csc(NC(=O)CN(C(=O)c2ccc(F)cc2)C2CC2)n1 | -3% | 0.39
47 | Cc1nc(CN[C@@H](C)c2ccc(-c3cccc(C#N)c3)cc2)oc1C | -17% | 2
48 | Cc1c(Cl)cccc1OC1=NNC(N)=C(N)O1 | -3% | 0.32
49 | CCN(CC)c1ccc(NC(=O)C2(S(C)(=O)=O)CCC2)cn1 | -12% | 1.31
50 | COc1cc(NC(=O)C2CC2c2cnn(C)c2)c(C(=O)N2CCCCC2)cc1OC (stereo unspecified) | -7% | 0.81
51 | COC(=O)CCN(CC(=O)Nc1nc(C)cs1)CC(C)C | -3% | 0.35
52 | Cc1ccc(CNC(C)CC(C)O)s1 (stereo unspecified) | -6% | 0.75
53 | CC(C)(C)c1nnc(NC[C@H](O)COCC2CC2)s1 | 30% | -3.36
